# Assay results taken from PubChem BioAssay AID485313 (National Center for Advancing Translational Sciences (NCATS), 2010).
# In all, about 320,000 compounds went through this assay and about 7,600 (2.4%) were called active. The shares of active, inactive and inconclusive entries below differ from those in the screen. Calls come from the whole dose curve; as a rule, active = well fitted activation curve with a large enough effect; inconclusive = small, poorly fitted or top-dose-only effect; inactive = no such curve, though single readings can be large or run the other way. No potency is given beside an inconclusive call; the fits are too rough.
# Test: qHTS Assay for NPC1 Promoter Activators; note: nearly all actives have a fitted effect of over 60% in size;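 for activation: reporter is driven by a mutant NPC1 promoter; % of control where 0% means no effect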
# Conditions: Huh7 NPC1 promoter luciferase reporter, 24 h; series mostly up to 9.22 µM
# How it was run: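 Quantitative HTS used a cell-based reporter: Huh7 cells stably bearing the NPC1 promoter upstream of luciferase were treated with compounds for 24 h, and promoter activation was read as luminescence.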
# Potency is the fitted concentration of half-maximal effect; tags give direction and shape of the fitted curve.
Structure (SMILES),Potency,activation
Cc1cc(C)n2cc(CSc3nc4ccccc4s3)nc2n1,"inconclusive [activator, partial curve]",–
CCc1nc2ccccc2c(C(=O)Nc2ccc(C)cc2)c1C,inactive,–
Cc1ccc(C)c(NC(=S)N2CCC(NC(=O)C3CCCCC3)CC2)c1,inactive,–
CC1CCCC(C)N1C(=O)CSc1nnc(C2CCCCC2)o1 (centres undefined),"inconclusive [activator, partial curve]",–
O=C(NCc1ccccn1)c1ccc(-c2ccccc2)cc1,"inconclusive [activator, single point]",–
COc1ccccc1-c1noc(-c2ccco2)n1,active: 3.55 µM,–
CC(=O)NC12CC3CC(C1)CC(C(=O)Nc1nc4ccc(F)cc4s1)(C3)C2,"inconclusive [activator, partial curve]",–
COc1ccc(-n2ncc3c(NC(C)C)ncnc32)cc1,active: 0.282 µM,–
COc1cccc(-c2cc3c(-n4cccc4)ncnc3o2)c1,"inconclusive [activator, partial curve]",–
CC(=O)COc1ccc2c3c(c(=O)oc2c1C)CCCCC3,"inconclusive [activator, single point]",–
CC(=O)Nc1ccc(-c2csc(Nc3cc(C)ccn3)n2)cc1,"inconclusive [activator, partial curve]",–
Cc1csc(NC(=O)COc2ccc3c(c2)CCC3)n1,"inconclusive [activator, single point]",–
COC(=O)c1ccccc1S(=O)(=O)NNC(=O)Nc1ccccc1,"inconclusive [activator, partial curve]",–
CC(C)OC(=O)c1sc2nc3c(cc2c1N)C(=O)CCC3,"inconclusive [activator, single point]",–
Cc1ccc2nc(NC(=O)c3ccco3)sc2c1,"inconclusive [activator, partial curve, poor fit]",–
CC(C)c1ccc(/C=C2\SC(=O)N(CC(=O)NC3C=CS(=O)(=O)C3)C2=O)cc1 (centres undefined),inactive,–
COc1ccccc1-c1noc(Cn2cc(S(=O)(=O)N3CCCC3)ccc2=O)n1,inactive,–
COc1cc(O)c2c(=O)cc(-c3ccccc3)oc2c1,"inconclusive [activator, single point]",–
Cc1sc(C(=O)Nc2ccc3ccccc3c2)cc1CC(=O)O,"inconclusive [activator, single point]",–
Cc1ccc(NC(=O)c2cccc(C(=O)OC(C)C)n2)c(Br)c1,inactive,–
COc1ccc(N=c2oc3ccccc3cc2C(=O)Nc2ccccn2)cc1OC,"inconclusive [activator, partial curve]",–
Clc1ccccc1N=C1SCCS1,"inconclusive [activator, single point]",–
Cc1cc(/C=c2\sc3nc4ccccc4n3c2=O)c(C)n1-c1ccc(C(=O)O)cc1,"inconclusive [activator, single point]",–
COc1ccc(NC(=O)c2sc(SC)nc2N)cc1,"inconclusive [activator, single point]",–
CCn1nnc(NC(=O)c2cccc(-c3cc4ccccc4oc3=O)c2)n1,"inconclusive [activator, partial curve]",–

Structure (SMILES),Potency,activation
Cc1ccc(NC(=O)c2csc3c2CCCC3)cc1,active: 2.82 µM,–
O=C(CCCC(=O)OCC(=O)c1cccs1)Nc1ccc(F)cc1,inactive,–
Cc1ccc(C(=O)N/N=C\c2ccc[nH]2)cn1,inactive,–
COc1ccc([C@]23Cc4cc(C#N)ccc4C(O2)c2c(cc(-c4ccccc4)oc2=O)O3)cc1,–,inactive: 1.23% [at 1.84 µM]
COc1ccccc1C(=O)O/N=C(\N)c1ccc(Cl)cc1,"inconclusive [activator, partial curve]",–
CCOc1cccc2cc(-c3csc(NC(=O)CCC(=O)N4CCC(C)CC4)n3)c(=O)oc12,"inconclusive [activator, single point]",–
C/C(=N\Nc1cc(C)nc(-c2ccccc2)n1)c1cccc([N+](=O)[O-])c1,inactive,–
O=C(c1cccc(-c2nnc(-c3ccccc3)o2)c1)N1CCCCCC1,"inconclusive [activator, partial curve]",–
c1ccc(-c2cc(N3CCCCC3)ncn2)cc1,"inconclusive [activator, partial curve]",–
O=C(O)c1cccc(NC(=O)c2cc(-c3cccc(Cl)c3)nc3ccccc23)c1,"inconclusive [activator, partial curve]",–
CN(CC(=O)Nc1ccc(Cl)c(Cl)c1)C(=O)c1cccc2cccnc12,inactive,–
CC(C(=O)O)c1ccc(N2Cc3ccccc3C2=O)cc1 (centres undefined),active: 0.0891 µM,–
CN(C)C1NC(=O)c2cc(-c3ccccc3)sc2N1 (centres undefined),"inconclusive [activator, full curve]",–
CCC(C)Sc1nnc(NC(=O)C2CCN(C(=O)c3ccco3)CC2)s1 (centres undefined),inactive,–
CC(C)C(=O)Nc1nc2cc3c(cc2s1)OCCO3,active: 0.891 µM,–
Cc1ccc(-c2cnc(-c3ccccc3C(=O)O)o2)cc1,"inconclusive [activator, single point]",–
CCC(C)(C)NC(=O)C(c1ccccn1)N(C(=O)c1csnn1)c1ccc(C)c(C)c1 (centres undefined),inactive,–
Cn1cccc1-c1nc2ccccc2[nH]1,"inconclusive [activator, partial curve]",–
CCNC(=O)COC(=O)c1cc(S(=O)(=O)N2CCCc3ccccc32)ccc1Cl,inactive,–
CN(C)/C=C/C(=O)c1ccc(Cl)c([N+](=O)[O-])c1,inactive,–
COCC(C)n1c(C)cc(C(=O)CSc2nnc(N)s2)c1C (centres undefined),"inconclusive [activator, partial curve]",–
CCC(=O)Nc1ccc(-c2nnc(-c3ccccc3)o2)cc1,active: 0.316 µM,–
COc1cc2ccccc2cc1C(=O)Nc1nc(C)c(C(C)=O)s1,active: 3.98 µM,–
O=C(N/N=C\c1ccc(Oc2ccccc2)cc1)c1csnn1,active: 3.55 µM,–
